{"source": "paper PMC12136788", "binders": {"B1": {"name": "chr11:69653362:69653473:+|3pUTR|ENSG00000110092|msi1_unk|FALSE|overlapping (ssRNA)", "RNA": "GGGAGUUCUACAGUCCGACGAUCACUGCCAUGUACUAGUUUUAGUUUUCUCUUAGAACAUUGUAUUACAGAUGCCUUUUUUGUAGUUUUUUUUUUUUUUAUGUGAUCAAUUUUGACUUAAUGUGAUUACUGCUCUAUUCCAAACAACAGAGGAUUGAGCAUCA"}, "B2": {"name": "chr21:14371318:14371404:-|3pUTR|ENSG00000155304|msi1_unk|total|mutant (ssRNA)", "RNA": "GGGAGUUCUACAGUCCGACGAUCUAUGAAUAACAAUCUGAAGUCUUUUCAUAAAAAAAAUUAAUAAACUUCCGUUGUACAUUCCGCCAGUGUUAUUUGAAGUAUGUAACUUUUAAAAUAUUAAGUGUCUUGUAUGAUCCGAAUCAACAGAGGAUUGAGCAUCA"}, "B3": {"name": "chr6:96891104:96891324:-|CDS|ENSG00000123545|unk|total|mutant (ssRNA)", "RNA": "GGGAGUUCUACAGUCCGACGAUCUAAUCAUAAGCUUUUCCCAGAAACCUGGACUGCUGAGAAAAUAAUGCAGGAAUACCAGUCCGAACAGAAAGAUGUGAAUUCUCUUCUUAAAUAUUUUGUUACUUUUGAAGUCGAAAUCUUCAACAGAGGAUUGAGCAUCA"}, "B4": {"name": "chr6:105096826:105097152:-|3pUTR|ENSG00000112276|msi1|total|mutant (ssRNA)", "RNA": "GGGAGUUCUACAGUCCGACGAUCACUUGCAACCCCGUUUUAAAAUACAUGAGGAUUUUAUGAAAGCUUUAUACAGACAUUUACCGGAAACUCAUUCUUUGAUUUCCGGUGCCAUUUAAAUUGAUAACACUUACUUUAUAAAAACAACAGAGGAUUGAGCAUCA"}, "B5": {"name": "chr2:60940222:60942394:-|three_prime_utr|ENSG00000162927|control|control|control (ssRNA)", "RNA": "GGGAGUUCUACAGUCCGACGAUCGUAACAUCUCAGGAUCUAUAUAUGUGUAUAUUUUGUGUUAAAUUGUUCCAAGGAUGUCUUAGGAUUUUUCUCAUUCCCUCUUUCACCCCCACAAACCAAACUAUGAAUAAUGAAAUAAUUCAACAGAGGAUUGAGCAUCA"}, "B6": {"name": "ENSG00000070961:be:win_3101|CDS|ENSG00000070961|bound_else_gene|NA|bound_elsewhere_windowed (ssRNA)", "RNA": "GGGAGUUCUACAGUCCGACGAUCCAGAACUUUCAAUAGAACAGUGGCUAUGGUCAAUAUUCCUAGGAAUGGGAACAUUACUCUGGGGCCAGCUUAUUUCAACAAUUCCAACUAGCCGUUUAAAAUUCCUCAAAGAAGCUGGUCCAACAGAGGAUUGAGCAUCA"}, "B7": {"name": "chr17:30248266:30248367:-|3pUTR|ENSG00000108578|msi1|total|mutant (ssRNA)", "RNA": "GGGAGUUCUACAGUCCGACGAUCUUGGGUGAGAACAACCAAAAUCUUAUCAUGGUCUCAGUCAUAAUCAUCCGGGGGAACUCCCGCCAAAUGGUUUAACUUCUGCCUGUGGAACUGGGGAUUGGGUGGGCAGGAAAAGGUGAUCAACAGAGGAUUGAGCAUCA"}, "B8": {"name": "chr7:7573188:7573293:+|CDS|ENSG00000164654|unk|total|mutant (ssRNA)", "RNA": "GGGAGUUCUACAGUCCGACGAUCCCAUAUUUCCACGAUCGUGUUGCUUCCUUCUAUGAAGGUCAGGUUGCAAUAUGGGAUCUCCGAAAAUUUGAGAAGCCAGUUUUGACAUUGACUGAGCAACCAAAACCCUUAACAAAAGUACAACAGAGGAUUGAGCAUCA"}, "B9": {"name": "chr3:170465896:170466000:-|3pUTR|ENSG00000013293|unk|FALSE|unique (ssRNA)", "RNA": "GGGAGUUCUACAGUCCGACGAUCACUUAGGUAGUUGCAUUCCAUGAGAUCACAUUUCACUUCUGAACCUUAUUCCUUGGGGCUAGCUCACUUUCAGAGGUGUAUUUUUUUUUCCUGUUAUUUCCCAGAGUAGUUUCACUGAAGCAACAGAGGAUUGAGCAUCA"}, "B10": {"name": "chr15:56434137:56434395:-|CDS|ENSG00000138587|control|control|control (ssRNA)", "RNA": "GGGAGUUCUACAGUCCGACGAUCAGAGGAAGAGGAGAACUUUAGAAAAACUAUGCUAGCUAAAUUUGCUGAGGAUGAUCGAAUAGAAUUAAUGAAUGCUCAGAAACAAAGAAUGAAGCAGCUGGAACACAGGAGGGCUGUGGACAACAGAGGAUUGAGCAUCA"}, "B11": {"name": "ENSG00000114744:stop:overlap|stop_codon|ENSG00000114744|stop_codon|NA|stop_codon (ssRNA)", "RNA": "GGGAGUUCUACAGUCCGACGAUCAACAAGCAUUGGAAGAGAUGAAGACAAAUCACUGUAGGAGAGUUGUUCGCAACAUCAAGUAGUACCAGUUUUAAGGUUUUAAUUCAUUUGAAUCACUUAUGAAUUGAUGAUAUACAGCAACAACAGAGGAUUGAGCAUCA"}, "B12": {"name": "ENSG00000124766:be:win_3051|3pUTR|ENSG00000124766|bound_else_gene|NA|bound_elsewhere_windowed (ssRNA)", "RNA": "GGGAGUUCUACAGUCCGACGAUCAGGGCUAGAGUUUUAACUUUUAAUUUUUUAUAUUUAAAUGUAGACUUUUGACACUUUUAAAAAACAAAAAAAGACAAGAGAGAUGAAAACGUUUGAUUAUUUUCUCAGUGUAUUUUUGUACAACAGAGGAUUGAGCAUCA"}, "B13": {"name": "chr15:93024873:93024975:+|3pUTR|ENSG00000173575|unk|FALSE|unique (ssRNA)", "RNA": "GGGAGUUCUACAGUCCGACGAUCGGUCCAGCUCUGAUUCGGGUCACCACUCCUGCACUUUGGCACCCCAUCCCAUUCCAGCCUAGUUCUGGCCUCCCACUUUGACGGGCACUUGGAGGAGGAGCUGACUGUGUGUGUACCAGCCAACAGAGGAUUGAGCAUCA"}, "B14": {"name": "chr11:85958428:85958534:-|3pUTR|ENSG00000073921|unk|FALSE|unique (ssRNA)", "RNA": "GGGAGUUCUACAGUCCGACGAUCAGAAACAAUAACUGAAAUUAACUUUUCUUUUUUUAAAAAAAAUUAUAUUCAGUUUGCAGUAGACAUUCCUUAAGUAUUUGUAUUUAUUUAUGAUUAUCAAUUUUACAUAACAUUAAUAUUCAACAGAGGAUUGAGCAUCA"}}, "note": "This is one part of the list."}
{"biological_target": "T1, UNK ZnF1-6 (called full-length) (human, UniProt Q9C0B0 30-357)", "T1 sequence": "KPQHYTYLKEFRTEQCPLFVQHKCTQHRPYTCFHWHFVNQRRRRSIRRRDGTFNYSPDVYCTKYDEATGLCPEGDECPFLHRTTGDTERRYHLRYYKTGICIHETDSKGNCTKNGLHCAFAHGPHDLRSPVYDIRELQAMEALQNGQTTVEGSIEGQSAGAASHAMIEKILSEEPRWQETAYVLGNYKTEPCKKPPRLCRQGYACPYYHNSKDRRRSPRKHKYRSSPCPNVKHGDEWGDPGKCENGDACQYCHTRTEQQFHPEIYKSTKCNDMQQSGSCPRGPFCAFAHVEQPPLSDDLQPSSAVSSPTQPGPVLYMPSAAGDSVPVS", "assay": "nsRBNS (natural sequence RNA bind-n-seq); RBNS binding buffer (assumed for nsRBNS): 25 mM Tris pH 7.5, 150 mM KCl, 3 mM MgCl2, 0.01% Triton X-100, 500 ug/ml BSA, 20 U/ml SUPERase-In, 4 C; UNK is unkempt and MSI1 is Musashi-1; names of the RNAs are library labels; protein concentration not given here; high values mean tight binding", "units": {"binding signal": "enrichment R"}}
{"binder": "B1", "binding signal": 80.9}
{"binder": "B2", "binding signal": 0.702}
{"binder": "B3", "binding signal": 0.432}
{"binder": "B4", "binding signal": 1.12}
{"binder": "B5", "binding signal": 1.88}
{"binder": "B6", "binding signal": 1.91}
{"binder": "B7", "binding signal": 1.22}
{"binder": "B8", "binding signal": 0.291}
{"binder": "B9", "binding signal": 2.34}
{"binder": "B10", "binding signal": 6.88}
{"binder": "B11", "binding signal": 2.3}
{"binder": "B12", "binding signal": 5.72}
{"binder": "B13", "binding signal": 4.71}
{"binder": "B14", "binding signal": 2.18}
